Experimental data taken from US12648574B2 (priority 2019, dated 2026).

Key:
[1] = tested on: Pseudomonas syringae pv. actinidiae IVIA 3700.1.1; type: cell-based
[2] = tested on: Pseudomonas syringae pv. tomato DC 3000; type: cell-based
[3] = tested on: Pseudomonas syringae pv. actinidiae IVIA 3700.1.1
Description: (§1) The efficacy of the product was evaluated against the following 5 phytopathogenic strains from the CIDSAV collection of quarantine pathogens, from European foci of infection or from Spanish type collections. The tested product comprised eucalyptus oil in sufficient amount to have 20% w/v of 1,8-cineole (measured by HPLC) and was stored at room temperature.
(§2) The inocula were obtained from the pure culture of the actively growing strains after seeding in LB agar medium and incubation at 28° C. for 24 hours. Each bacterial suspension was prepared at a final concentration of 1×10^8 CFU/ml.
(§3) The bactericidal activity of 5 doses of the product was evaluated. For each phytopathogen, different concentrations were tested depending on the results previously obtained in the evaluation of antimicrobial activity (example 2).
(§4) In addition, the effect of the product was compared with that of the antibiotic streptomycin at a concentration of 100 mg/L. An untreated control was also added, where the product was replaced by sterile distilled water. […]
(§5) The multiwell plates were incubated at 28° C. in constant agitation (150 rpm). At 30 minutes (min) and 2 hours (h) of exposure of the bacteria with the products, their survival was analyzed by counting viable in plaque. The colony-forming units (CFUs) were counted at 48 h after incubation at 28° C. determining the survival (CFU/ml) of each phytopathogenic bacterium for each treatment, and were compared with those obtained in the untreated control. Three repetitions were analyzed for each treatment.
(§6) From the survival (CFU/ml) obtained in each treatment, the minimum bactericidal concentration (MBC) and the dose that is lethal for half of a bacterial population (LD50) were determined. […]
(§7) The bactericidal activity of the different concentrations of the product against E. amylovora, X. arboricola pv. pruni, X. axonopodis pv. vesicatoria, P. syringae pv. actinidiae and P. syringae pv. tomato was evaluated by a contact test, where a suspension of each bacterium was incubated with each concentration of the product and samples were taken after 30 and 120 min. […]

[4] = tested on: Pseudomonas syringae pv. tomato DC 3000
Description: as §1, §2, §3, §4, §5, §6, §7

## [H]/N=C(/N)N[C@H]1[C@H](O)[C@@H](O)[C@H](O[C@@H]2O[C@@H](C)[C@](O)(C=O)[C@H]2O[C@@H]2O[C@@H](CO)[C@H](O)[C@@H](O)[C@@H]2NC)[C@@H](N/C(N)=N\[H])[C@@H]1O [streptomycin]
[1]
  bacterial growth: −
[2]
  bacterial growth: −
[3]
  growth after contact: no growth
[4]
  growth after contact: no growth
[4]; 2 hours
  growth after contact: no growth

Like-named read-outs stand apart in the source and are kept apart here.
